# Data taken from publication PMC4336329 (PLoS ONE, 2015).
# About 2,200 (0.71%) of roughly 310,000 compounds showed an effect of 50% or more. The effect is printed as a negative number. The list shows a part of the results.
# Target: human ether-à-go-go-related gene (hERG) potassium channel (human, UniProt Q12809)
# Assay: primary screen, population patch clamp on CHO cells stably expressing hERG
# Chain of human ether-à-go-go-related gene (hERG) potassium channel (Q12809 whole entry, looked up): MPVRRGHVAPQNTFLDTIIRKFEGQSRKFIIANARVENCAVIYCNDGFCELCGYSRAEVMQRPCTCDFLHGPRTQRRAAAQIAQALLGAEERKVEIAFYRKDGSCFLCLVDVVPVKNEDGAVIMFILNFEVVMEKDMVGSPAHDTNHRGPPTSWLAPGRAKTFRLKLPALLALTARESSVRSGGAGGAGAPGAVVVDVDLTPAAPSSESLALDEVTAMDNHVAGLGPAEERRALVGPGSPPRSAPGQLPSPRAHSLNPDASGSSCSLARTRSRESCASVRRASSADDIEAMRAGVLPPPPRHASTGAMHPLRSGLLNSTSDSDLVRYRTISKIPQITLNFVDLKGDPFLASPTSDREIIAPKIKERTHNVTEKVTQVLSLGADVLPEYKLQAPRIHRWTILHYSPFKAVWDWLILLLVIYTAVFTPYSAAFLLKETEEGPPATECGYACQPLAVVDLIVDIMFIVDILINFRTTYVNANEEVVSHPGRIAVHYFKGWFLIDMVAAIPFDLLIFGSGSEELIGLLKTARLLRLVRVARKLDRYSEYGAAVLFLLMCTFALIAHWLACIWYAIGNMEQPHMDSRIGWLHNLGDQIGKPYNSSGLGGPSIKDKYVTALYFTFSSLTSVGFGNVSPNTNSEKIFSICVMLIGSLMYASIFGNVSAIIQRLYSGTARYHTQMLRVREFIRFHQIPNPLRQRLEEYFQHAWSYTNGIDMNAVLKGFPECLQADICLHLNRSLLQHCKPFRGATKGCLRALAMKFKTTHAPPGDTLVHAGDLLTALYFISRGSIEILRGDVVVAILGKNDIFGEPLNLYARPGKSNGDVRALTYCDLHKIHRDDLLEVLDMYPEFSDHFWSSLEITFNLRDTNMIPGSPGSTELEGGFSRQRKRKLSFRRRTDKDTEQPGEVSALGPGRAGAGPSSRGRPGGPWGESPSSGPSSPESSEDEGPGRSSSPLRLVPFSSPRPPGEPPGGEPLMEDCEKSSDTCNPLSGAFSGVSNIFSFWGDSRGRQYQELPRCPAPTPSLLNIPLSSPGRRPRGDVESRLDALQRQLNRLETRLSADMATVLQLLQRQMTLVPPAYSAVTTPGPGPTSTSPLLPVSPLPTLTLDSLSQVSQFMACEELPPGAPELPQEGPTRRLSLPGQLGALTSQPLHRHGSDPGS
row,Structure (SMILES),"hERG current change (%, negative = inhibition) at 1uM [%]"
1,CSCCC(NC(=O)CCN1C(=O)c2ccccc2C1=O)C(=O)O (stereo not drawn),10.4
2,CCc1cc(=O)oc2cc(OC(C)=O)cc(OC(C)=O)c12,12.1
3,COc1ccc(CNC(=O)CN(C(=O)c2ccc(CN3CCOCC3)o2)C2CCCC2)cc1,8.08
4,CCOc1ccc(S(=O)(=O)N2CCC(C(=O)NC3CCCC3)CC2)cc1,-0.932
5,Cc1ccc(C(=O)Nc2ccc(OCc3ccccc3)cc2)cc1[N+](=O)[O-],2
6,CC(C)(C)NC(=O)C1CCN(C(=O)c2ccc(-c3ccccc3)cc2)CC1,-1.66
7,COc1ccccc1-n1c(SCC(=O)O)nc2c(sc(=S)n2-c2ccc(C)c(C)c2)c1=O,15.4
8,CCC(=O)Nc1ccc(C(=O)NNC(=O)COc2cccc(C)c2)cc1,7.07
9,N#CNC(=Nc1ccc(Cl)cc1)Oc1ccccc1,3.34
10,COc1ccc(F)cc1C(=O)C1CCCN(C(=O)CSc2ccccn2)C1 (stereo not drawn),-8.84
11,COc1cccc(NC2=CC(=O)CC(C)(C)C2)c1,7.94
12,COc1ccc(N(CC(=O)Nc2ccccc2C(=O)O)S(=O)(=O)c2ccc(C)c([N+](=O)[O-])c2)cc1,17.6
13,COc1ccc(C(=O)N/N=C/c2ccc(OC)c(COc3ccccc3)c2)cc1,-13.1
14,O=C(NCc1ccc(F)cc1F)Nc1cnccc1C(F)(F)F,14.7
15,CCOC(=O)COc1ccc(Br)cc1C1NC(=O)NC(C)=C1C(=O)NCc1ccccc1 (stereo not drawn),-4.6
16,COCCn1c(SCC(=O)NCc2ccco2)nnc1-c1c[nH]c2ccccc12,16.6
17,O=C(CSc1nnc2ccc(-c3ccccc3)nn12)NCC1CCCO1 (stereo not drawn),3.71
18,COc1cccc(-c2cccc(NC(=O)C3CCN(Cc4ccc(C)o4)CC3)c2)c1,-5.6
19,COc1ccccc1C(=O)NCC(=O)OCC(=O)c1ccc(Cl)s1,16.6
20,CC(C)n1cc(/C(N)=N/O)c(=O)n(Cc2ccccc2)c1=O,2.2
21,CC1CCOC2(O1)C(=O)N(CN1CCN(c3cccc(Cl)c3)CC1)c1ccccc12 (stereo not drawn),11.9
22,Cc1cc(C(=O)N2CCCc3ccccc32)ccc1[N+](=O)[O-],4.58
23,CC1(C)CN=C(Nc2ccccc2C(F)(F)F)S1,13.4

row,Structure (SMILES),"hERG current change (%, negative = inhibition) at 1uM [%]"
1,CN1CCc2nc3sc(C(=O)NC(C)(C)C)c(N)c3cc2C1,14.1
2,Cc1c(C(=O)N2CCC(n3nccc3NC(=O)C3CC3)CC2)[nH]c2ccc(Cl)cc12,-4.79
3,CCOc1ccc(OCC)c(N=c2oc3c(C)ncc(CO)c3cc2C(N)=O)c1,6.58
4,Cc1ccc(NC(=O)CSc2nncs2)cc1Cl,14.5
5,N#Cc1ccc(CSc2nnc(NC(=O)c3ccc4ncsc4c3)s2)cc1,15.2
6,CC1=NN(c2ccc(C)c(C)c2)C(=O)/C1=C\C=C\c1ccc([N+](=O)[O-])o1,5.55
7,COCCCNC(=S)N/N=C/c1ccc(N(C)C)cc1Cl,8.94
8,CN(C)c1ccc(/C=N/NC(=O)c2ccccc2)cc1,13.3
9,Cc1ccc(N(CCC(=O)NC(C)(C)C)S(=O)(=O)c2ccc(C)cc2)cc1,4.09
10,CC(C)c1ccc(C(C)NC(=O)C2CCCC2)cc1 (stereo not drawn),4.3
11,CC(C)Nc1nc(N)c(C(=O)C23CC4CC(CC(C4)C2)C3)s1,10.5
12,Cc1ccc(OCC(=O)NNC(=O)CCc2ccccc2)c(Br)c1,14.5
13,CCN(CC)C(=N)/C(C#N)=N/Nc1ccc(C)cc1,-11.2
14,COc1nc(C#N)nc(N(C)C)n1,-12.4
15,Cc1cc2ccccc2c(=O)n1CC(=O)NCC(=O)N(C)C1CCCCC1,7.37
16,COc1ccccc1NC(=S)NCCc1ccc(F)cc1,11.7
17,Nc1nc2nc(-c3ccc(Cl)cc3)cc(C(F)(F)F)n2n1,11.9
18,CCN1c2ccccc2NC2C1C(C(C)=O)C(=O)N2c1ccc(Cl)cc1 (stereo not drawn),7.18
19,Cn1c(C(=O)N2CCCC(C(=O)NCc3cccs3)C2)cc2sccc21 (stereo not drawn),-1.35
20,CC(=O)n1cc([C@@H]2C=C(C(=O)N3CCOCC3)O[C@H](OCCCCO)C2)c2ccccc21,-1.57
21,N#CCC(=O)Nc1ccc(C(=O)NCC(c2ccco2)N2CCCCC2)cc1 (stereo not drawn),5.6
22,CCN(CC(=O)NC1CCS(=O)(=O)C1)C(=O)c1ccc(OC)c([N+](=O)[O-])c1 (stereo not drawn),9.3
